# Results published in the supplement of paper PMC4604168 (melanoma cell lines).
# The other results are listed elsewhere or left out. Most values come without repeats; read them as rough.
# Key:
# Experiment in all cases: cell count relative to DMSO control; melanoma cells; higher = more viable cells
# Conditions in all cases: library dose: low library concentration; 72 h
# COLO792 = system: COLO792
# COLO800 = system: COLO800
# COLO829 = system: COLO829
# G361 = system: G361
# IPC-298 = system: IPC-298
# IST-MEL1 = system: IST-MEL1
# LB2518-MEL = system: LB2518-MEL
# LOXIMVI = system: LOXIMVI
# MEL-HO = system: MEL-HO
# 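Note: cell number obtained by counting DAPI-stained nuclei in high-throughput microscope images with image analysis software, screen run in 1,536-well plates.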
Structure (SMILES),cell count (COLO792),cell count (COLO800),cell count (COLO829),cell count (G361),cell count (IPC-298),cell count (IST-MEL1),cell count (LB2518-MEL),cell count (LOXIMVI),cell count (MEL-HO)
"O=C(Nc1cc(C(F)(F)F)cc(C(F)(F)F)c1)c1cc(Cl)ccc1O + COC(=O)c1sccc1S(=O)(=O)Nc1ccc(Nc2ccccc2)cc1OC [GSK0660] (first compound 0.016 µM, partner dose 1 µM)",92.1%,119%,112%,112%,104%,101%,106%,146%,100%
"O=C(O)c1ccc2c(c1)nc(Nc1cccc(Cl)c1)c1ccncc12 + CN(C)S(=O)(=O)c1ccc2c(c1)/C(=C/c1cc3c([nH]1)CCCC3)C(=O)N2 [SU6656] (first compound 0.4 µM, partner dose 0.4 µM)",89.6%,103%,83.3%,89.5%,90.6%,95.6%,84.2%,74.9%,82.2%
"O=C(Nc1cc(C(F)(F)F)cc(C(F)(F)F)c1)c1cc(Cl)ccc1O + COc1cc(Nc2ncc(F)c(Nc3ccc4c(n3)NC(=O)C(C)(C)O4)n2)cc(OC)c1OC [Tamatinib] (first compound 0.016 µM, partner dose 0.4 µM)",51.4%,83.8%,101%,95.6%,79.8%,85.7%,80.7%,45.3%,82.2%
"O=C(Nc1cc(C(F)(F)F)cc(C(F)(F)F)c1)c1cc(Cl)ccc1O + O=C(CCCCCCC(=O)Nc1ccccc1)NO [vorinostat] (first compound 0.016 µM, partner dose 0.08 µM)",91.5%,104%,95.3%,102%,107%,95.8%,93.9%,107%,93.1%
"O=C(O)c1ccc2c(c1)nc(Nc1cccc(Cl)c1)c1ccncc12 + COc1cc2c(Oc3ccc4[nH]c(C)cc4c3F)ncnc2cc1OCCCN1CCCC1 [cediranib] (first compound 0.4 µM, partner dose 0.4 µM)",85.4%,92.5%,94.3%,90.5%,95.7%,116%,94%,65.5%,86%
"Cn1nnc2c(C(N)=O)ncn2c1=O [temozolomide] + O=C(CCCCCCC(=O)Nc1ccccc1)NO [vorinostat] (first compound 2 µM, partner dose 0.08 µM)",102%,92.4%,109%,93.8%,101%,94.3%,97.5%,95%,106%
"O=C(Nc1cc(C(F)(F)F)cc(C(F)(F)F)c1)c1cc(Cl)ccc1O + CC(C)(C)c1cnc(CSc2cnc(NC(=O)C3CCNCC3)s2)o1 [SNS-032] (first compound 0.016 µM, partner dose 0.01 µM)",86.8%,95%,110%,93%,102%,99.2%,96.7%,57.8%,93.2%
"O=C(O)[C@@H]1[O][Sb](=[O])([O][Sb]2(=[O])[O][C@H]([C@H](O)CO)[C@H](O)[C@H](C(=O)O)[O]2)[O][C@H]([C@H](O)CO)[C@@H]1O (some centres undefined) [stibogluconate] + O=c1cc(-c2cccc3c2Sc2ccccc2S3)oc(N2CCOCC2)c1 [KU55933] (first compound 2 µM, partner dose 1 µM)",95.9%,76.4%,119%,96.9%,99%,103%,104%,104%,101%
"O=C(O)[C@@H]1[O][Sb](=[O])([O][Sb]2(=[O])[O][C@H]([C@H](O)CO)[C@H](O)[C@H](C(=O)O)[O]2)[O][C@H]([C@H](O)CO)[C@@H]1O (some centres undefined) [stibogluconate] + COc1ccc2c(c1)CCC1C2CCC2(C)C(NCCCCCCN3C(=O)C=CC3=O)CCC12 [U73122] (first compound 2 µM, partner dose 0.4 µM)",115%,140%,127%,85%,94.9%,107%,97%,99.2%,105%
"Cc1cc(N2CCOCC2)cc2[nH]c(-c3c(NC[C@@H](O)c4cccc(Cl)c4)cc[nH]c3=O)nc12 + CN(C)S(=O)(=O)c1ccc2c(c1)/C(=C/c1cc3c([nH]1)CCCC3)C(=O)N2 [SU6656] (first compound 0.2 µM, partner dose 0.4 µM)",68.1%,38.9%,80.3%,73.8%,94.8%,89.3%,79.3%,105%,90.1%
"Cn1nnc2c(C(N)=O)ncn2c1=O [temozolomide] + CN(NC(=O)CC(=O)NN(C)C(=S)c1ccccc1)C(=S)c1ccccc1 [STA4783] (first compound 2 µM, partner dose 0.006 µM)",52.4%,48.4%,66.5%,2.02%,78.6%,79.3%,66.7%,87.6%,92.1%
